According to PubChem BioAssay AID624418 (National Center for Advancing Translational Sciences (NCATS), 2012):
The whole screen tested about 410,000 compounds, of which about 530 (0.13%) were called active. This list was built around the results that the source calls inconclusive (neither active nor inactive); the mix of calls is not that of the screen. Calls follow the shape of the dose curve; as a rule, active = well fitted inhibition curve with a large enough effect; inconclusive = small, poorly fitted or top-dose-only effect, or another doubt; inactive = no such curve, though single readings can be large or run the other way. Potencies of inconclusive entries are doubtful fits and often do not repeat.

test: qHTS of GLP-1 Receptor Inverse Agonists: Cytotox Screen; conditions: HEK293 cAMP-luciferase reporter cells, luminescence, 24 h; series mostly up to 38.3 µM
In short: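 Here, cytotoxicity is scored as loss of luminescence. The MLSMR collection was tested on cells seeded in medium containing 10% Nu serum, with a 24 hr compound exposure preceded by 12 hours of culture.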
Potency is read from the fitted curve at half-maximal effect.

Row | SMILES | Potency
1 | Cc1ccc(C(=O)N/C(=C/c2ccc(-c3ccc([N+](=O)[O-])cc3)o2)C(=O)NCCCN(C)C)cc1 | inconclusive: 28.2 µM [inhibitor, single point]
2 | COc1cc(OC)c2ccc(=O)oc2c1C(CCN1CCOCC1)c1ccc2c(c1)OCO2 (stereo unspecified) | inconclusive: 7.94 µM [inhibitor, partial curve, poor fit]
3 | COc1ccc(Oc2nc(-c3ccccc3)ncc2S(=O)(=O)c2ccccc2)cc1 | inactive
4 | Cc1ccc(C(=O)N(CCCN(C)C)c2nc3ccc(Cl)cc3s2)cc1C | inconclusive: 28.2 µM [inhibitor, single point]
5 | O=C(c1ccc(CS(=O)c2ccccc2Cl)o1)N1CCN(c2ccccn2)CC1 (stereo unspecified) | inconclusive: 6.31 µM [inhibitor, partial curve, poor fit]
6 | O=C(NC1CCCCC1)C(c1ccc2ncccc2c1)N(Cc1ccc2c(c1)OCO2)C(=O)c1cccs1 (stereo unspecified) | inconclusive: 12.6 µM [inhibitor, single point]
7 | COc1ccc2oc(C)c(C(=O)c3ccccc3)c2c1 | inconclusive: 12.6 µM [inhibitor, single point]
8 | CCOC(=O)c1c(C)oc2nc(C)nc(N3CCN(c4cccc(C(F)(F)F)c4)CC3)c12 | inactive
9 | COCCn1c(CNc2ccc(F)cc2)nnc1SCC(=O)Nc1ccc(OC)cc1OC | inconclusive: 14.1 µM [inhibitor, single point]
10 | CC(C)(C)C(c1nc2ccccc2[nH]1)n1c(-c2ccsc2)nc2ccccc21 (stereo unspecified) | inconclusive: 11.2 µM [inhibitor, single point]
11 | O=C(NCc1cccnc1)c1cc(Sc2ccccc2Cl)nc2ccccc12 | inconclusive: 11.2 µM [inhibitor, single point]
12 | CCOC(=O)c1c(CSc2nc(C)cc(C)c2C#N)n(C)c2cc(Br)c(OC(C)=O)cc12 | inactive
13 | COc1ccc(NC(=O)CSc2nnc(Cc3ccccc3)c(=O)n2N)c(OC)c1 | inconclusive: 6.31 µM [inhibitor, partial curve, poor fit]
14 | CCC(C)[C@H]1CNC(=S)N1CCc1cc(C(F)(F)F)cc(C(F)(F)F)c1 (stereo partly specified) | inconclusive: 5.01 µM [inhibitor, full curve]
15 | COc1ccc(/C=N\NC(=O)COc2ccccc2Cl)cc1Cn1nc(C)cc1C | inconclusive: 31.6 µM [inhibitor, single point]
16 | CC(=C\c1ccccc1)/C=C1/SC(=S)N(C(C(=O)O)C(C)C)C1=O (stereo unspecified) | inconclusive: 10 µM [inhibitor, partial curve]
17 | Nc1ccc(N=Nc2ccc(N)cc2)cc1 | inconclusive: 11.2 µM [inhibitor, single point]
18 | O=C(CN1C(=O)COc2ccccc21)NCCN1CCC(Cc2ccccc2)CC1 | inconclusive: 10 µM [inhibitor, single point]
19 | c1ccc(-c2nnc(-c3ccccn3)nc2NC2CCCCC2)cc1 | inconclusive: 7.08 µM [inhibitor, partial curve]
20 | O=C(NCCNc1ccc([N+](=O)[O-])cc1)c1ccco1 | inconclusive: 12.6 µM [inhibitor, single point]
21 | CC1=Nc2cc(C(=O)NC3CCCC3)ccc2Sc2ccc(Cl)cc21 | inconclusive: 2 µM [inhibitor, full curve, poor fit]

Row | SMILES | Potency
22 | CCC(c1nnnn1C1CCCC1)N(Cc1cccs1)Cc1cc2cccc(C)c2[nH]c1=O (stereo unspecified) | inconclusive: 12.6 µM [inhibitor, partial curve, poor fit]
23 | COc1cc(N=c2c([N+](=O)[O-])nn(-c3ccc4c(c3)OCCO4)n2O)cc(OC)c1 | inconclusive: 10 µM [inhibitor, partial curve]
24 | CCCCc1c(O)nc(SCC(=O)NCCc2ccc(OC)c(OC)c2)[nH]c1=O | inactive
25 | Cc1noc(C)c1CSc1nc2ccccc2c(=O)n1-c1ccc(F)cc1F | inconclusive: 1.78 µM [inhibitor, partial curve, poor fit]
26 | CCOC(=O)c1c(NC(=O)c2ccccc2N(C)S(=O)(=O)c2ccccc2)sc2c1CCCC2 | inactive
27 | Cc1nn(C)c(C(=O)NN)c1Cl | inactive
28 | Nc1c(Cl)cc(C2=NCCn3c2c2ccccc2[n+]3[O-])cc1Cl | inconclusive: 3.55 µM [inhibitor, full curve]
29 | CC(C)(C)C(=O)N1N=C(c2ccc(NS(C)(=O)=O)cc2)CC1c1cccs1 (stereo unspecified) | inconclusive: 11.2 µM [inhibitor, single point]
30 | Cc1nn(CCC(=O)NNC(=S)NCC(C)C)c(C)c1Br | inconclusive: 2.24 µM [inhibitor, full curve]
31 | CCc1nnc(N/N=C/c2cc(C)c(C)cc2C)n1N | inactive
32 | Cc1ccc2c(=O)cc(C(=O)NCc3ccccc3)oc2c1C | inactive
33 | CCN1CCCC1CNC(=O)c1ccc2c(c1)NC(=O)/C(=C\c1ccc(OC)c(OC)c1)S2 (stereo unspecified) | inconclusive: 28.2 µM [inhibitor, single point]
34 | O=C1C=C(NCCc2cc(Br)c(O)c(Br)c2)C(=O)c2ncccc21 | inconclusive: 12.6 µM [inhibitor, partial curve, poor fit]
35 | Cc1ccc2nc(N(CCCN(C)C)C(=O)c3cc(-c4cccs4)nc4ccccc34)sc2c1 | inconclusive: 10 µM [inhibitor, partial curve]
36 | COC(=O)c1ccc(-n2c(C)cc(C(=O)CCl)c2C)cc1 | inconclusive: 14.1 µM [inhibitor, single point]
37 | CCN1CSC(=S)N(Cc2ccccc2)C1 | inconclusive: 28.2 µM [inhibitor, single point]
38 | COc1ccc(C(=O)NCCCN=C2NS(=O)(=O)c3ccccc32)cc1 | inactive
39 | CC(C)(C)NC(=O)COc1ccc(CNCc2cccs2)cc1 | inconclusive: 0.891 µM [inhibitor, full curve, poor fit]
40 | Cc1cccc(OCCN2C(=O)C(=O)c3cc(C)ccc32)c1 | inconclusive: 1.26 µM [inhibitor, partial curve, poor fit]
41 | Cc1ccc(NC(=S)N/N=C2\CCCCC2C)cc1 (stereo unspecified) | inconclusive: 28.2 µM [inhibitor, single point]
